# In all, about 74,000 compounds went through this assay and about 1,100 (1.5%) were called active. The shares of active, inactive and inconclusive entries below differ from those in the screen. Calls come from the whole dose curve; as a rule, active = well fitted inhibition curve with a large enough effect; inconclusive = small, poorly fitted or top-dose-only effect; inactive = no such curve, though single readings can be large or run the other way. No potency is given beside an inconclusive call; the fits are too rough.
# Biological target: Polyunsaturated fatty acid lipoxygenase ALOX15 (Homo sapiens) (UniProt P16050)
# Sequence of UniProt P16050 (P16050 whole entry, looked up): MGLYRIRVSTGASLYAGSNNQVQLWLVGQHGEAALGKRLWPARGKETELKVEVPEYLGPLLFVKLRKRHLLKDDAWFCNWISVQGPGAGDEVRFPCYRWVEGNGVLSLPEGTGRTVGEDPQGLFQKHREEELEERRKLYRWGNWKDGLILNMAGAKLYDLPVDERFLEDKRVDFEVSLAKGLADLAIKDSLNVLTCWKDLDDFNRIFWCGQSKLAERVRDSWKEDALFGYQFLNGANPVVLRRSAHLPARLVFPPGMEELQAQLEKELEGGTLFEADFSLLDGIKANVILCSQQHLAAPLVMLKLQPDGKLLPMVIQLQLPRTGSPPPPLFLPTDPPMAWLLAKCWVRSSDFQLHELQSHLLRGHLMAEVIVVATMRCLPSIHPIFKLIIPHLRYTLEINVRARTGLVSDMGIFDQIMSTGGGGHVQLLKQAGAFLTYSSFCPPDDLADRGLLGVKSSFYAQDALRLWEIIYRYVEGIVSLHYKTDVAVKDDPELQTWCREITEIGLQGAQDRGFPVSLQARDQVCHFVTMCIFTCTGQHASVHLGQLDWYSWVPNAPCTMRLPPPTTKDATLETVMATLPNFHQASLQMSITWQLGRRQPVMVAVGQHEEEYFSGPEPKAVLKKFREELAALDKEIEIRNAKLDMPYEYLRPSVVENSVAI
# Assay: qHTS Assay for Inhibitors of 15-hLO (15-human lipoxygenase); note: nearly all actives have a fitted effect of over 55% in size
# Conditions: purified 15hLO-1, xylenol orange hydroperoxide absorbance; activity change, negative = inhibition: at 57.1 µM (top of the series) unless noted
# Procedure, shortened: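 Compounds were preincubated 15 min at room temperature with 40 nM purified human enzyme (25 mM Hepes pH 7.5, 0.01% Triton X-100); 50 uM arachidonic acid reacted 6 min. Fe-xylenol orange detection, 30 min, absorbance ratio 573/405 nm.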
# % is set by controls: 0 for no effect and ±100 for the full control effect; potency is the fitted concentration of half-maximal effect; tags give direction and shape of the fitted curve.
SMILES,Potency,"activity change, negative = inhibition"
COc1ccccc1N1CCN(C(=O)CCc2ccc(S(=O)(=O)NCC(C)C)cc2)CC1,inactive,
OC[C@@H]1O[C@@H](n2cnc3c(N[C@@H]4C[C@@H]5CC[C@H]4C5)ncnc32)[C@@H](O)[C@H]1O,inactive,
COC(=O)C1C(O)CC[C@H]2CN3CCc4c([nH]c5ccccc45)C3C[C@H]12 (stereo partly specified),"inconclusive [inhibitor, single point]",
C=CCNc1ncnc2c1cnn2-c1cccc(C)c1,inactive,
CCOC(=O)N1CCC(NC(=O)c2cnn3c2NC(c2ccco2)CC3C(F)(F)F)CC1 (stereo unspecified),"inconclusive [inhibitor, single point]",
O=C(C1=C(O)C(=O)N(c2ncccn2)C1c1cccs1)c1ccco1 (stereo unspecified),"inconclusive [inhibitor, single point]",
COc1ccc(CNc2cc(-c3cccc(NS(C)(=O)=O)c3)ncn2)c(OC)c1,inactive,
O=C(c1csc2ccccc12)n1cccn1,"inconclusive [inhibitor, partial curve]",
CC1CC=C2C(C#N)=C(N)C(C#N)(C#N)C(c3cccs3)C2C1 (stereo unspecified),"inconclusive [inhibitor, partial curve]",
Cc1cc(C)c2cc(C#N)c(N3CCCC3)nc2c1,"inconclusive [inhibitor, partial curve]",
Cc1c(Cc2ccccc2)sc(N)c1C(N)=O,"inconclusive [inhibitor, single point]",
OC[C@@H]1O[C@@H](O)[C@H](N=Cc2ccc3c(c2)OCO3)[C@@H](O)[C@@H]1O,,inactive: 10.2% [at 11.4 µM]
O=C(NCCCN1CCOCC1)c1ccc(Cc2nc3ccccc3[nH]2)cc1,inactive,
CCn1c(SCC#N)nc2c(c1=O)C1(CCCC1)Cc1ccccc1-2,"inconclusive [inhibitor, single point]",
Cc1cc(Nc2ccccc2)nc(-c2ccccc2O)n1,inactive,
O=C(c1ccc(Br)o1)N1CCN(c2ccc3nnc(-c4ccccc4)n3n2)CC1,active: 15.8 µM,
COC(=O)c1cc(NS(=O)(=O)c2ccc3c(c2)CCC(=O)N3)cc(C(=O)OC)c1,"inconclusive [inhibitor, single point]",
N#CC1(C#N)C2=C(CCCC2)NC(c2ccccc2)C1(C#N)C#N (stereo unspecified),"inconclusive [inhibitor, single point]",
NC(=O)c1cccc2c3c([nH]c12)CCCC3,active: 3.16 µM,
CCc1nc(NC(C)C)c2oc3ccccc3c2n1,"inconclusive [inhibitor, single point]",
Nc1c(C(=O)c2cccs2)oc2ccccc12,inactive,
O=C(COC(=O)c1ccc(=O)n(Cc2ccccc2)n1)Nc1ccc2c(c1)OCCO2,"inconclusive [inhibitor, full curve, poor fit]",
Nc1c(S(=O)(=O)c2cccs2)c2nc3ccccc3nc2n1Cc1cccs1,"inconclusive [inhibitor, partial curve]",
CS(=O)(=O)Nc1cccc(-c2nc(NCc3cccs3)c3ccccc3n2)c1,"inconclusive [inhibitor, single point]",

SMILES,Potency,"activity change, negative = inhibition"
Cc1cnc(C(=O)Nc2ccccc2-c2ccc(C)o2)cn1,"inconclusive [inhibitor, single point]",
C/C(CCN1CCCc2nc(C)c(C)cc21)=N\OC[C@@H](O)[C@@H]1O[C@@H]2OC(C)(C)O[C@@H]2[C@H]1O,,inactive: 4.48% [at 11.4 µM]
CC1CN(c2nn3c(=O)c4ccccc4nc3c3ccccc23)CC(C)O1 (stereo unspecified),inactive,
Cc1cc(C)c(/C=C2/C(=O)Nc3ccccc32)[nH]1,"inconclusive [inhibitor, partial curve]",
Cc1ccc(SCc2[nH]nc3c2C(c2ccco2)C(C#N)=C(N)O3)cc1 (stereo unspecified),"inconclusive [inhibitor, single point]",
CCOC(=O)c1c(C)[nH]c2ccc3c(c12)CN1CCc2cc(OC)ccc2[C@@H]1O3,inactive,
CCN1C(=O)/C(=C2/Sc3ccccc3N2CCCS(=O)(=O)O)SC1=S,"inconclusive [inhibitor, single point]",
COc1ccccc1NCCC(=O)OCC(=O)NCc1ccco1,"inconclusive [inhibitor, partial curve]",
Cc1nn2c(c1-c1ccccc1)N=C(c1ccco1)CC2c1ccccc1 (stereo unspecified),"inconclusive [inhibitor, partial curve]",
O=C(Nc1ccc(F)c(F)c1)c1ccc2c(c1)OCO2,inactive,
COCCn1c(-c2ccccc2F)n[nH]c1=S,"inconclusive [inhibitor, partial curve]",
Cc1ccc(S(=O)(=O)Nc2ccc(O)c(C(=O)O)c2)c(C)c1,inactive,
COc1cc(O)c(C(=O)/C=C/c2ccc(OC)c(O)c2)c(OC)c1,"inconclusive [inhibitor, partial curve]",
Cc1cc(C(=O)CSc2nnnn2C)c(C)n1CCc1ccc(Cl)cc1,"inconclusive [inhibitor, partial curve]",
N#Cc1ccsc1NC(=O)c1cnccn1,"inconclusive [inhibitor, single point]",
COc1ccc(NC(=O)CN2C(=O)CC(C)(C)S(=O)(=O)c3ccccc32)cc1,inactive,
Cc1oc(-c2ccccc2)nc1C(=O)OCC(=O)NC(=O)NCC(C)C,"inconclusive [inhibitor, partial curve]",
O=C(Nc1ccc(NC(=O)c2ccco2)nc1)c1cccnc1,"inconclusive [inhibitor, full curve, poor fit]",
c1ccc(C2C3=C(CCCC3)Nc3ncnn32)cc1 (stereo unspecified),"inconclusive [inhibitor, single point]",
C=CCn1c(SCC(=O)NCCOC)nc2scc(-c3ccco3)c2c1=O,"inconclusive [inhibitor, partial curve]",
CCc1ccc2oc(-c3cc(N)ccc3Cl)nc2c1,"inconclusive [inhibitor, single point]",
c1ccc(-c2nnc3sc(-c4csc5c4CCCC5)nn23)cc1,active: 15.8 µM,
COc1ccccc1-c1cn[nH]c(=S)n1,"inconclusive [inhibitor, partial curve]",
COc1ccc(CCNc2nnc(Sc3nnnn3-c3ccccc3)s2)cc1OC,inactive,

SMILES,Potency,"activity change, negative = inhibition"
Nn1cnn(Cc2ccccc2)c1=S,"inconclusive [inhibitor, partial curve, poor fit]",
N#C/C(=C\c1ccc(O)c(O)c1)C(=O)Nc1ccccc1,active: 3.16 µM,
Cc1ccc(NC(=O)CNc2cccc(C)c2C)c(C)c1,"inconclusive [inhibitor, partial curve]",
COc1ccc2c(c1)CCc1c(C(=O)N3CCCCCC3)noc1-2,inactive,
CCOc1ccc(C(=O)Nc2c(C(N)=O)oc3ccccc23)cc1,"inconclusive [inhibitor, partial curve]",
COC(=O)NC(c1ccco1)[C@]1(C(C)=O)CCCC1=O (stereo partly specified),,inactive: 5.25% [at 11.4 µM]
Cc1ccc(S(=O)(=O)NCCC(=O)Nc2nnc(C3CC3)s2)cc1C,"inconclusive [inhibitor, partial curve]",
O=c1oc2c3c4c(cc2c2c1CCC2)OCCN4CCC3,"inconclusive [inhibitor, partial curve]",
COc1ccc2nc(Nc3nc(C)c(C(C)=O)s3)sc2c1,"inconclusive [inhibitor, single point]",
C[C@@H]1CN(CCCn2c3ccccc3c3ccccc32)C[C@H](C)N1,"inconclusive [inhibitor, single point]",
O=C(NC1CCCC1)C(c1ccncc1)N(Cc1cccs1)C(=O)c1csnn1 (stereo unspecified),inactive,
O=C1OC(c2ccc(O)cc2)(c2ccc(O)cc2)c2ccccc21,"inconclusive [inhibitor, single point]",
CCCNC(=O)OC[C@@H]1O[C@H](CCO/N=C\C[C@H]2C=C[C@H](OC(C)=O)[C@@H](COC(C)=O)O2)C=C[C@@H]1Oc1ccc(OC)cc1,,inactive: -0.128% [at 11.4 µM]
Cc1ccc2c(c1)C(O)(CC(=O)c1cccnc1)C(=O)N2 (stereo unspecified),inactive,
Oc1ccc(C=Nc2ccc(N3CCOCC3)cc2)c(O)c1,"inconclusive [inhibitor, partial curve]",
COc1ccc(S(=O)(=O)Nc2cc(C(C)C)c(O)cc2C)cc1,"inconclusive [inhibitor, partial curve]",
C(=C\c1ccccc1)/CSc1nnc(-c2cnccn2)n1Cc1ccco1,"inconclusive [inhibitor, single point]",
c1ccc(-c2nn3c(C4COc5ccccc5O4)nnc3s2)cc1 (stereo unspecified),"inconclusive [inhibitor, partial curve]",
O=C(CN1CCCN(S(=O)(=O)c2ccc(F)cc2)CC1)Nc1ccccc1Br,"inconclusive [inhibitor, full curve, poor fit]",
O=C(NCCN1CCOCC1)NC1(C(F)(F)F)Oc2ccc(Cl)cc2O1 (stereo unspecified),active: 3.16 µM,
CC1CCCC(C)N1C(=O)CSc1nnc(NC(=O)Cc2cccs2)s1 (stereo unspecified),"inconclusive [inhibitor, full curve]",
O=c1ccc2cc3c([nH]c4ccc(Br)cc43)oc-2c1O,active: 25.1 µM,
CS(=O)(=O)N1CCC2(CCCN(c3ncccn3)C2)CC1,"inconclusive [inhibitor, full curve]",

# Reference: PubChem BioAssay AID887 (National Center for Advancing Translational Sciences (NCATS), 2007)
